Experimental data published in publication PMC6919601, “Identification of Plasmodium dipeptidyl aminopeptidase allosteric inhibitors by high throughput screening” (PLoS ONE, 2019).
Several values for one entry are separate records, joined by “and”; a condition that tells them apart may be missing. Identical values can stand only once. In all, about 110,000 compounds went through this assay and about 230 (0.21%) showed an effect of 50% or more. Some of the results follow.

These compounds were tested against DPAP1 (Plasmodium falciparum, UniProt Q8IIJ9) (assay: primary screen, percent inhibition; read by cleavage of a fluorogenic dipeptide substrate; higher = more effect of the substance).
Design: species or system P. falciparum D10 trophozoite lysates; single well
Method: HTS was performed in black 384-well plates. The first and last two columns of each plate contained our negative (DMSO) and positive (10 μM JCP410) controls, and the 20 central columns the test compounds at 10 μM. Compounds were first diluted 50-fold into assay buffer (50 mM sodium acetate, 5 mM MgCl2, 10 mM β-mercaptoethanol, and 0.1% CHAPS, pH 5.5) from a 10 mM DMSO stock plates. One microliter of this 200 μM intermediate stock plate was dispensed into the assay plate. […] After 30 min, the reaction was quenched with 20 μL of 0.5 M acetic acid, and the fluorescent intensity measured at 523 nm (λex = 492 nm) using an Analyst HT multimode plate reader (Molecular Devices).
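Also: 30 min substrate incubation versus DMSO and 10 µM JCP410 controls.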

Chain of DPAP1 (Q8IIJ9 whole entry, looked up): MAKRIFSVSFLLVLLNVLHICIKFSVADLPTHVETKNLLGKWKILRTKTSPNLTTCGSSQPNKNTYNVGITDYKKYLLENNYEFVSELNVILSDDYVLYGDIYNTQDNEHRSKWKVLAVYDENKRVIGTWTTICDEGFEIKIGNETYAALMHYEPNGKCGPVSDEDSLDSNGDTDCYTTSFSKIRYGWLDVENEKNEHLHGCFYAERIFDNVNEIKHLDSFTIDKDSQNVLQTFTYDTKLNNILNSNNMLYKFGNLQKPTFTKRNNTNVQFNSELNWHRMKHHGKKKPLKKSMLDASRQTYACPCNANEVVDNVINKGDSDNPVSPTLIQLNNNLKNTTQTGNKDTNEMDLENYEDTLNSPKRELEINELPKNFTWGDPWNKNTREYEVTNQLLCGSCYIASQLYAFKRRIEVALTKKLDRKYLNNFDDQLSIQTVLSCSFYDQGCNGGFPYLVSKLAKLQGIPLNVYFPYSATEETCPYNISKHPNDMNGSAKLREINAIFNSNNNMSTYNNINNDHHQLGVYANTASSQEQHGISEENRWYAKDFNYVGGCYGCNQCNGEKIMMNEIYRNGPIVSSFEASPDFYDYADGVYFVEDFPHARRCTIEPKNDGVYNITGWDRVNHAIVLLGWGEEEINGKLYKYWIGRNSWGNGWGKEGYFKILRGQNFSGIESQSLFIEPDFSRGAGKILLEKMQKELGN

| Structure (SMILES) | % Inhibition @ 10 uM |
| --- | --- |
| O=C1/C(=C\c2ccccc2[N+](=O)[O-])Sc2ccccc21 | 0.467% |
| COc1cc(N2CCCC2)c(OC)cc1/C=C1/NC(=O)N(Cc2ccccc2F)C1=O | 5.31% |
| CCN(CC)CCOC(=O)/C=C(\NC(=O)c1ccccc1)c1ccc(OC)c(OC)c1 | 3.72% |
| COc1cc2c(cc1OC)C1=C(c3ccccc3C1)N(C)CC2 | 8.07% |
| Cc1oc2ccc(O)c(CN3CCOCC3)c2c1C(=O)NCc1ccccc1 | 0.486% |
| CCOc1ccccc1C1C(C#N)=C(N)Oc2[nH]nc(C(C)(C)C)c21 (stereo not shown) | -1.44% |
| c1ccc2c(c1)N1CCCN=C1C21CCCCC1 | -0.744% |
| Cc1nc2c(c3c1[nH]c1ccccc13)C(=O)CCC2 | -3.74% |
| O=C1/C(=C/c2ccc(F)cc2)CCc2ccccc21 | 8.9% |
| CCn1c(=O)c2sccc2n2c(CCCC(=O)NC3CCN(Cc4ccccc4)CC3)nnc12 | -7.48% |
| Cc1c(-c2nsc(NC(=O)c3cccs3)n2)nnn1-c1cc(F)ccc1F | 0.747% |
| CCCc1[nH]nc2c1C(c1cccc(OCC(N)=O)c1)C(C#N)=C(N)O2 (stereo not shown) | -3.63% |
| COc1ccc(Cl)cc1C1=N/C(=C/c2ccco2)C(=O)O1 | 4.54% |
| O=C(Nc1ccc(NS(=O)(=O)c2ccc(Cl)cc2)cc1Cl)c1cc(Cl)ccc1O | 1.7% |
| O=C(Nc1ccccc1)c1ccccc1N1C(=O)c2ccccc2C1=O | -3.12% |
| COc1ccc(S(=O)(=O)N2CCN(c3ccc(F)cc3)CC2)c(Cl)c1Cl | -3.24% |
| O=C(O)C1C2C=CC(C2)C1C(=O)Nc1cccnc1 (stereo not shown) | 5.52% |
| CC(C)(C)N(Cc1ccccc1)C(=O)c1ccc(Cl)cc1 | -0.216% |
| CC(Cc1ccccc1)N1CCC(=O)C2=C1CCCC2 (stereo not shown) | 2.6% |
| Cc1nc(OCc2ccccc2)c2ccccc2n1 | -3.83% |
| O=C(Nc1nc2ccc(Cl)cc2s1)C1CCCN(S(=O)(=O)c2c[nH]cn2)C1 (stereo not shown) | -1.89% |
| Cc1ccc(Nc2nc(-c3ccc(S(=O)(=O)N4CCCCC4)cc3)cs2)cc1Cl | -2.42% and -1.15% |
| COC(=O)C(Cc1ccccc1)NC(=O)c1ccccc1Br (stereo not shown) | -0.128% |
| COc1cc(OC)cc(C(=O)Nc2c(C(=O)N3CCN(Cc4ccccc4)CC3)oc3ccccc23)c1 | 0.623% |
| COc1ccc(C)cc1-n1c(C)cc(/C=C2/C(=N)N3C(=NC2=O)SN=C3S(=O)(=O)C(C)C)c1C | -3.39% |

| Structure (SMILES) | % Inhibition @ 10 uM |
| --- | --- |
| CCn1c2ccccc2c2cc(CN(C)C3CCN(C)CC3)ccc21 | -0.828% |
| CCSc1nnc(NC(=O)C2=Cc3sc4c(c3CS2)CCCC4)s1 | 5.54% |
| O=C(NCCc1ccccc1)C(=O)NC1CCCC1 | -3.5% |
| N#CCNC(=O)[C@H](Cc1nccs1)NC(=O)c1ccc(-c2ccccc2Cl)cc1 | -8.81% |
| Nc1ncn(Cc2ccccc2)c2nc(SCCOc3ccc(Cl)cc3)nc1-2 | 2.09% |
| O=C1CC(c2ccc(-c3ccccc3)cc2)C2=C(CCCC2=O)N1 (stereo not shown) | -1.92% |
| O=C(NCc1ccc2c(c1)OCO2)c1ccc(CN2CC(=O)N3CCCCC3C2=O)cc1 (stereo not shown) | 2.22% |
| Cc1noc(/C=C/N(C)C)c1S(=O)(=O)N1CCN(C2CCCC2)CC1 | 4.61% |
| CCOC(=O)N1CCC(NC(=O)CS(=O)Cc2nc(-c3ccc(OC)c(OC)c3)oc2C)CC1 (stereo not shown) | 2.37% |
| COC(=O)C1=CN(CC23CC4CC(CC(C4)C2)C3)C=C(C(=O)OC)C1c1cccc(F)c1 | 1.03% |
| c1ccc2[nH]c(C3CCCO3)nc2c1 (stereo not shown) | 5.29% |
| Cc1ccc2onc(CNC(=O)Nc3cccnc3Cl)c2c1 | -0.544% |
| CCN1C(=O)CC(C(=O)Nc2ccccc2)S/C1=N\c1cccc(F)c1 (stereo not shown) | -1.57% |
| CC(=O)c1cc(-c2ccccc2)n(CC(=O)N2CCC(N(C)CC3CCCO3)CC2)c1C (stereo not shown) | -1.6% |
| Cc1ccccc1NC(=O)c1cnn(-c2ccccc2)c1C | 0.709% |
| Cn1cc(NC(=O)Nc2nc3ccccc3s2)c2ccccc2c1=O | 0.49% |
| O=C(CNC1CCCCC1)c1ccc(O)c(O)c1 | -2.42% |
| COC(=O)c1c(-c2ccc(Cl)cc2)csc1N | 5.2% |
| Cc1c(C(=O)NC(C)C)sc2ncn(CC(=O)N3CCCCC3C)c(=O)c12 (stereo not shown) | -3.93% |
| O=C(Nc1nc(-c2ccc(F)cc2F)cs1)C1CCCC1 | -1.12% |
| COc1ccc(Br)cc1CN1CCN(c2ccccn2)CC1 | -10.4% |
| O=S(=O)(c1ccc(-n2cnnn2)cc1)N1CCC(Oc2ccc3c(c2)OCO3)CC1 | -1.07% |
| COc1cc2c(cc1NC(=O)c1nn(C)cc1Br)oc1ccccc12 | 2.64% |
| CCOc1ccc(NC(=O)C2c3ccccc3Oc3ccccc32)cc1 | -0.988% |
| CCOc1ccc(C(=O)Nc2cccc(C)n2)cc1Br | -4.39% |

| Structure (SMILES) | % Inhibition @ 10 uM |
| --- | --- |
| CCOc1ccc(/C=C2\N=C(c3ccc(C)cc3)OC2=O)cc1 | 4.35% |
| COc1cccc(Cn2nnc(C(=O)NCc3ccc4c(c3)OCO4)c2N)c1 | 2.72% |
| O=C(CCc1ccccc1)Nc1ccccc1[N+](=O)[O-] | 4.22% |
| O=C(O)C1CCCCC1C(=O)NCc1cccs1 (stereo not shown) | 7.16% |
| CC1CCCC(NC(=O)Cn2cnc3onc(-c4ccc(Cl)cc4)c3c2=O)C1C (stereo not shown) | -6.13% |
| O=C(O)c1ccccc1N(Cc1ccccc1)C(=O)c1cccs1 | -0.67% |
| Cc1ccc(-c2noc(CN(C(=O)CC(C)(C)C)C(C)C)n2)cc1 | -4.94% |
| NS(=O)(=O)c1ccc(CCNS(=O)(=O)c2ccccc2)cc1 | 4.67% |
| CCc1ccc(OCC(O)CN2CCN(Cc3ccc4c(c3)OCO4)CC2)cc1 (stereo not shown) | 9.33% |
| Cn1nc(C(=O)N2CCC(C(N)=O)CC2)c2c1-c1ccccc1SC2 | 6.38% |
| OC[C@H](O)[C@H](O)[C@H](O)[C@H](O)[C@H]1SC(c2ccccc2)=NN1c1ccccc1 | -1.32% |
| O=C1NCCNC(=O)c2ccccc2OCCOCCOc2ccccc21 | 2.13% |
| CCOC(=O)c1c(-c2ccccc2)n2c3c(cccc13)SCC2 | 4.61% |
| Cc1cccc(CN2CCN(CC(=O)NCc3ccccc3Cl)C2=O)c1 | -1.83% |
| Cc1cc(OCc2nc(-c3cccnc3)no2)cc(C)c1Br | -12.5% |
| O=C(COc1ccc([N+](=O)[O-])cc1)Oc1ccc(C(=O)c2ccccc2)cc1 | 19.6% |
| Cc1ccc(C)c(Cn2c(C)c(CNCC(C)c3ccccc3)c(C(=O)O)c2C)c1 (stereo not shown) | -1.92% |
| COc1ccc(C(=O)c2nc3ccccc3n2C(C)C)cc1OC | 22.7% |
| CCCC(=O)C1=C(NCCc2ccc(OCC)c(OCC)c2)CCCC1=O | -2.63% |
| O=c1nc2s/c(=C/c3cccc4ccccc34)c(=O)n2nc1Cc1ccc(F)cc1 | 2.9% |
| CC(=O)c1ccc(N2CCN(Cc3ccc(F)c(Br)c3)CC2)cc1 | 3.85% |
| COc1ccc(/C=C/c2ccc(OC)c(OC)c2)cc1 | -5.46% |
| CCN(CC)CCN(C)Cc1ccc(F)cc1F | 1.29% |
| COc1ccc(-c2noc(-c3nnn(-c4cccc(Cl)c4)c3N)n2)cc1 | 4.23% |
| COc1cc(OC)cc(C(=O)Nc2c(F)cccc2F)c1 | -0.171% |

| Structure (SMILES) | % Inhibition @ 10 uM |
| --- | --- |
| CCOC(=O)CN(C)Cc1c(F)cccc1Cl | -6% |
| CC1=C(C#N)C(=O)N(CCc2ccccc2)C(=O)/C1=C/c1ccc(-c2ccc3c(c2)COC3=O)o1 | 0.884% |
| CCOC(=O)C1=C(C)N(C)C(=S)NC1c1ccc(Cl)cc1 (stereo not shown) | -2.13% |
| Cc1ccc(S(=O)(=O)Nc2cccc(Cl)c2)cc1C(N)=O | -4.18% |
| CC(C)(C)c1[nH]nc2c1C(c1ccc(OCC(N)=O)cc1)C(C#N)=C(N)O2 (stereo not shown) | 0.746% |
| C=CCOc1ccc(-c2nc(O)c3c4c(sc3n2)CCCC4)cc1OC | 1.96% |
| COC(=O)c1nnn(-c2cccc(Cl)c2C)c1C(=O)OC | 6.59% |
| CCOc1cc(-c2nnc3[nH]c(=O)n(C)c(=O)c3n2)ccc1OC(C)C | -6.5% |
| COc1ccc(-c2noc(CCC(=O)NCCN(C)Cc3ccccc3)n2)cc1 | -2.7% |
| CC(C)(C)NC(=O)/C=C/c1ccccc1Cl | -0.414% |
| Cc1cc(C)c(S(=O)(=O)Nc2cccc(Cl)c2Cl)c(C)c1 | 2.01% |
| CC(C)CCNC(=O)c1cnn(C(C)(C)C)c1C1CCN(C(=O)OC(C)(C)C)CC1 | 2.27% |
| O=C1CCCC2=C1C(c1ccccc1)C1C(=O)c3ccccc3C1=N2 (stereo not shown) | 3.17% |
| CC1CN(Cc2ccc(C(F)(F)F)cc2)CC(C)O1 (stereo not shown) | 4.22% |
| COc1ccc(CNC(=O)c2ccc(Cl)cc2)cc1 | 1.74% |
| Cc1ccc(-n2ncc3c(=O)n(CC(=O)c4ccccc4)cnc32)cc1C | 3.24% |
| COc1cc(OC)c(OC)cc1/C=C1\SC(N2CCCCC2)=NC1=O | -1.02% |
| CCOC(=O)c1c(C)n2c3c(cccc13)CCC2 | 2.62% |
| C=CCNC(=O)CSc1nc(C)c(C)c(C)c1C#N | 2.99% |
| COc1ccc2c(CNCc3ccc4c(c3)OCO4)c(C(=O)O)n(C)c2c1 | 1.76% |
| CCCOc1ccccc1/C=C/c1[nH]c(=O)[nH]c(=O)c1[N+](=O)[O-] | -4.21% |
| O=C(CCNc1cc(Cl)cc(Cl)c1)c1ccco1 | -1.32% |
| Cc1ccc(Cl)cc1N(CC(=O)Nc1ccc(C(C)C)cc1)S(C)(=O)=O | -4.13% |
| c1ccc(C(c2ccccc2)c2nc3ccccc3[nH]2)cc1 | -9.29% |
| CCOC(=O)c1c(NC(=O)CSc2nnc3cc(C)c4ccccc4n23)sc(C)c1C | 21.3% |
